{"source": "the antibiotic and cytotoxicity screens of Wong et al. (2023)", "note": "The list shows a part of the results."}
{"system": "HepG2", "experiment": "cytotoxicity call (relative viability < 0.9)", "conditions": "10 µM"}
{"smiles": "OC[C@H]1CC[C@@H]2O[C@H](CCc3ccc(C#CCc4ccccc4)cc3)[C@H](n3cc(-c4ccccc4)nn3)C[C@@H]2O1", "cytotoxicity call": "inactive"}
{"smiles": "O=C(C[C@@H]1CC=CC[C@@H](NC(=O)OCC2c3ccccc3-c3ccccc32)C(=O)OC[C@@H](Cc2ccccc2)NC1=O)N[C@@H](CO)Cc1ccccc1", "cytotoxicity call": "inactive"}
{"smiles": "CC(=O)NCCCC[C@@H]1NC(=O)[C@@H]2C[C@H](C(=O)O)[C@H](c3ccc(O)cc3)N2C1=O", "cytotoxicity call": "inactive"}
{"smiles": "CC(C)NC(=O)Nc1ccc2c(c1)C(=O)N([C@@H](C)CO)C[C@@H](C)[C@@H](CN(C)Cc1ccc(Cl)c(Cl)c1)OCCCC[C@@H](C)O2", "cytotoxicity call": "inactive"}
{"smiles": "CN(C)CC(=O)N[C@H]1CC[C@@H](CCNC(=O)C2CC2)O[C@H]1CO", "cytotoxicity call": "inactive"}
{"smiles": "COc1ccc(NC(=O)Nc2ccc3c(c2)CC(=O)N([C@@H](C)CO)C[C@H](C)[C@@H](CN(C)S(C)(=O)=O)O3)cc1", "cytotoxicity call": "inactive"}
{"smiles": "Cc1noc(C)c1NC(=O)Nc1ccc2c(c1)CC(=O)N([C@@H](C)CO)C[C@@H](C)[C@H](CN(C)S(=O)(=O)c1cn(C)cn1)O2", "cytotoxicity call": "inactive"}
{"smiles": "C[C@@H]1CN([C@@H](C)CO)C(=O)c2cc(NC(=O)Cc3cn(C)c4ccccc34)ccc2O[C@@H]1CN(C)C(=O)Nc1ccc(C(F)(F)F)cc1", "cytotoxicity call": "inactive"}
{"smiles": "CC(=O)Nc1cccc(NC(C)=O)n1", "cytotoxicity call": "inactive"}
{"smiles": "C=CCC[C@@H](Cc1ccc(F)cc1)C(=O)OC[C@@H](Cc1ccccc1)NC(=O)[C@H](CC=C)CC(=O)N(CCO)Cc1ccccc1", "cytotoxicity call": "inactive"}
{"smiles": "C[C@H]1CCCCO[C@@H](CN(C)C(=O)Nc2ccc(F)cc2)[C@@H](C)CN([C@@H](C)CO)C(=O)c2cc(NC(=O)Cc3ccccc3)ccc2O1", "cytotoxicity call": "inactive"}
{"smiles": "C[C@@H]1CCCCO[C@H](CN(C)S(=O)(=O)c2ccc(Cl)cc2)[C@H](C)CN([C@@H](C)CO)C(=O)c2cc(NC(=O)Nc3ccccc3)ccc2O1", "cytotoxicity call": "inactive"}
{"smiles": "Cc1ccc(NC(=O)Nc2cc(C(F)(F)F)ccc2F)cc1Nc1ccc2c(c1)NC(=O)/C2=C\\c1ccc[nH]1", "cytotoxicity call": "active"}
{"smiles": "Cc1noc(C)c1NC(=O)N[C@@H]1C=C[C@@H](CC(=O)N2CCN(C)CC2)O[C@H]1CO", "cytotoxicity call": "inactive"}
{"smiles": "C[C@@H]1CCCCO[C@@H](CN(C)C(=O)Cc2ccccc2)[C@@H](C)CN([C@@H](C)CO)C(=O)c2cc(NS(=O)(=O)c3cccs3)ccc2O1", "cytotoxicity call": "inactive"}
{"smiles": "C[C@@H]1CCCCO[C@@H](CN(C)Cc2ccc(C(=O)Nc3ccccc3N)cc2)[C@@H](C)CN([C@H](C)CO)C(=O)c2cc(NC(=O)Nc3ccc4c(c3)OCO4)ccc2O1", "cytotoxicity call": "inactive"}
{"smiles": "C[C@@H]1CN([C@H](C)CO)S(=O)(=O)c2ccc(C3=CCCC3)cc2O[C@@H]1CN(C)S(=O)(=O)c1cn(C)cn1", "cytotoxicity call": "inactive"}
{"smiles": "Cc1noc(C)c1S(=O)(=O)Nc1ccc2c(c1)CC(=O)N([C@@H](C)CO)C[C@H](C)[C@H](CN(C)Cc1ccncc1)O2", "cytotoxicity call": "inactive"}
{"smiles": "Cc1noc(C)c1NC(=O)Nc1ccc2c(c1)C(=O)N([C@@H](C)CO)C[C@@H](C)[C@H](CN(C)Cc1ccc(C(=O)O)cc1)OCCCC[C@@H](C)O2", "cytotoxicity call": "inactive"}
{"smiles": "Cc1noc(C)c1S(=O)(=O)Nc1cccc2c1O[C@@H](CN(C)C(=O)NC1CCCCC1)[C@@H](C)CN([C@@H](C)CO)C2=O", "cytotoxicity call": "inactive"}
{"smiles": "C[C@H]1CNCCO1", "cytotoxicity call": "inactive"}
{"smiles": "COc1ccc(S(=O)(=O)N(C)C[C@@H]2Oc3ccc(NS(=O)(=O)c4ccccc4)cc3C(=O)N([C@@H](C)CO)C[C@H]2C)cc1", "cytotoxicity call": "inactive"}
{"smiles": "NCCc1cc2nc(-c3ccncc3)ccn2n1", "cytotoxicity call": "inactive"}
{"smiles": "COc1ccccc1CNC(=O)C[C@@H]1CC[C@H]2[C@@H](COC[C@H](O)CN2C(=O)Nc2ccc(Cl)cc2)O1", "cytotoxicity call": "inactive"}
{"smiles": "O=C(C[C@@H]1C[C@H]2c3cc(NC(=O)C4CCOCC4)ccc3O[C@H]2[C@H](CO)O1)NCc1ccc(Cl)cc1", "cytotoxicity call": "inactive"}
{"smiles": "C[C@@H]1CCCCO[C@@H](CN(C)Cc2ccc3c(c2)OCO3)[C@@H](C)CN([C@@H](C)CO)C(=O)c2cc(NC(=O)Cc3ccccc3)ccc2O1", "cytotoxicity call": "inactive"}
{"smiles": "C[C@@H]1CN([C@H](C)CO)C(=O)Cc2cc(NC(=O)CCN3CCOCC3)ccc2O[C@@H]1CN(C)Cc1ccc2c(c1)OCO2", "cytotoxicity call": "inactive"}
{"smiles": "COc1ccc(S(=O)(=O)N(C)C[C@@H]2Oc3ccc(NC(=O)CCC(F)(F)F)cc3CC(=O)N([C@H](C)CO)C[C@H]2C)cc1", "cytotoxicity call": "inactive"}
{"smiles": "C[C@H](CO)N1C[C@H](C)[C@H](CN(C)Cc2ccc(C(=O)O)cc2)OCCCC[C@H](C)Oc2ccc(NC(=O)CCC(F)(F)F)cc2C1=O", "cytotoxicity call": "inactive"}
